# Results from the supplement of paper PMC8792480.
# The list shows a part of the results. Many values rest on one well or one pass, so single values are uncertain.
# Test system: A549
# Assay: cell-surface PD-L1 MFI ratio relative to radiation alone (isotype-subtracted); higher = higher PD-L1 surface expression
# Conditions: inducer: radiation 8 Gy; 10 µM; 24 h
# Protocol: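 A549 and H460 NSCLC cells were treated with each library drug at 10 uM, then with radiation (8 Gy) or cisplatin (4 uM), and incubated for 24 h. Cell-surface PD-L1 was measured by flow cytometry as an MFI ratio: (MFI drug+inducer - MFI isotype)/(MFI inducer alone - MFI isotype). Hits were defined as ratio < 0.75.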
# 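Further: surface PD-L1 on NSCLC cells stained with a PE-labelled anti-human PD-L1 antibody before flow cytometry, screening a library of roughly two hundred mostly kinase and epigenetic inhibitors.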
row,Structure (SMILES),cell-surface PD-L1 MFI ratio
1,COC(=O)[C@@H](N)CCCNC(=N)N[N+](=O)[O-],inactive: 0.804
2,COc1cc([C@@H]2c3cc4c(cc3[C@H](O)[C@H]3COC(=O)[C@@H]23)OCO4)cc(OC)c1OC [Picropodophyllin (PPP)],inactive: 1.73
3,CN1CCN(c2ccc([N+](=O)[O-])c3no[n+]([O-])c23)CC1,inactive: 0.979
